The whole screen tested about 350,000 compounds, of which about 260 (0.074%) were called active. Inconclusive results, whose numbers are uncertain, are shown with a selection of clear calls. Calls come from the whole dose curve; as a rule, active = well fitted inhibition curve with a large enough effect; inconclusive = small, poorly fitted or top-dose-only effect; inactive = no such curve, though single readings can be large or run the other way. A potency beside an inconclusive call is a rough fit, not a confirmed value.
Biological target: Ferritin light chain (Equus caballus) (UniProt P02791)
UniProt P02791, sequence (P02791 whole entry, looked up): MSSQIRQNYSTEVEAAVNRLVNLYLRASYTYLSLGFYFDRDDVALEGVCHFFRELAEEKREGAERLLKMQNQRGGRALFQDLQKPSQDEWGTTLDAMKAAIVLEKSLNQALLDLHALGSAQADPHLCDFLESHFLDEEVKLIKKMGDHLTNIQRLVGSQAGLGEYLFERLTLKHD
Assay: qHTS Assay for Identification of Novel General Anesthetics; note: nearly all actives have a fitted effect of over 20% in size
Settings: apoferritin/1-aminoanthracene competitive binding, fluorescence; activity change, negative = displacement: at 77.5 µM (top of the series)
Outline: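 10 uM apoferritin + 50% sat. 1-AMA, PBS; cpd 10 min RT; Ex380/Em535 endpoint; normalized to free probe vs complex; 4-param Hill fit; propofol titration as pos. ctrl.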
% is set by controls: 0 for no effect and ±100 for the full control effect; potency is the fitted concentration of half-maximal effect; tags give direction and shape of the fitted curve.

Structure (SMILES) | activity change, negative = displacement | Potency
O=C(CCS(=O)(=O)c1nc(-c2ccc3c(c2)OCO3)cc(C(F)(F)F)n1)Nc1ccc(Br)cc1 | inactive: 36.3% | 
O=C(Nc1cccnc1)c1ccc(Cl)c(S(=O)(=O)N2CCc3ccccc32)c1 |  | inconclusive: 22.4 µM [inhibitor, partial curve]
CC1=CCC2C(=O)N(c3ccc(C)cc3)C(=O)C2C1 (configuration not stated) |  | inconclusive: 11.2 µM [inhibitor, partial curve]
O=C(CCn1nc(-c2ccccc2)c2ccccc2c1=O)N1CCN(c2ccccc2)CC1 |  | inconclusive: 28.2 µM [inhibitor, partial curve]
O=C1CC(c2c(F)cccc2Cl)c2c(ccc3ccccc23)N1 (configuration not stated) |  | inconclusive: 10 µM [inhibitor, partial curve]
O=C(CSc1nc2ccccc2c(=O)n1NC(=O)Cc1ccccc1)NCc1ccccc1 |  | inconclusive: 15.8 µM [inhibitor, partial curve]
CCCCN(CC)C(=O)c1c[nH]c2ccc(S(=O)(=O)N(C)c3ccc(Cl)cc3)cc2c1=O |  | inconclusive: 56.2 µM [inhibitor, single point]
COc1ccc(C(=O)CSc2nnc(Cn3cnc4ccccc43)o2)cc1 |  | inconclusive: 35.5 µM [inhibitor, partial curve]
CC(C)Oc1ccc(CNC(=O)c2ccc3c(c2)nc2n3CCOC2)cc1 |  | inconclusive: 15.8 µM [inhibitor, partial curve]
CCCCCC(=O)c1c(O)cc(OC)c(Cl)c1O | inactive: -1.71% | 
Cc1cc(-c2nnc(-c3ccccc3)c(-c3ccccc3)n2)c(C)o1 |  | inconclusive: 15.8 µM [inhibitor, partial curve]
Cc1[nH]c2ccccc2c1C(=O)C(=O)N(C)C1CCCCC1 |  | inconclusive: 31.6 µM [inhibitor, partial curve]
Cc1ccccc1-c1nc(CN2CCN(C(=O)c3ccco3)CC2)c(C)o1 | inactive: -6.61% | 
O=C(Nc1ccc(Oc2cccnc2)cc1)C1CCN(Cc2ccc(F)cc2)CC1 |  | inconclusive: 25.1 µM [inhibitor, partial curve]
Nc1ccc(C(=O)N/N=C/c2cccc(Oc3ccccc3)c2)cc1 |  | inconclusive: 31.6 µM [inhibitor, partial curve]
COc1cc(/C=c2\sc3nc(=O)c(-c4ccccc4)nn3c2=O)ccc1OCCC(C)C | inactive: 0.0319% | 
CCOC(=O)c1sc2nc(N3CCOCC3)c3c(c2c1N)CC(C)(C)N(C)C3 | inactive: 47.4% | 
COc1ccc(Oc2cc(NN3CCCCC3)c([N+](=O)[O-])cc2[N+](=O)[O-])cc1OC |  | inconclusive: 28.2 µM [inhibitor, partial curve]
COC(=O)c1cc(Sc2cccc(Cl)c2Cl)ccn1 |  | inconclusive: 35.5 µM [inhibitor, partial curve]
CCC(CC)C(=O)c1c[nH]c(C(=O)OC)c1 |  | inconclusive: 22.4 µM [inhibitor, partial curve]
O=C(NNC1CC(=O)N(c2ccc(Br)cc2)C1=O)c1cccs1 (configuration not stated) | inactive: -10.4% | 
CCOC(=O)C1(Cc2cccc(OC)c2)CCCN(C(=O)c2ccc(OC)o2)C1 (configuration not stated) | inactive: -15.7% | 
COc1cccc(C(=O)CN(C(=O)c2ccc(Cl)c(Cl)c2)N2C(=O)c3ccccc3C2=O)c1 |  | inconclusive: 22.4 µM [inhibitor, partial curve]

Structure (SMILES) | activity change, negative = displacement | Potency
CSc1ncc(CN2CCCC(C(=O)c3ccc(C(C)(C)C)cc3)C2)cn1 (configuration not stated) |  | inconclusive: 28.2 µM [inhibitor, single point]
CCc1ccc(S(=O)(=O)Nc2cc(SCC(=O)O)c(O)c3ccccc23)cc1 |  | inconclusive: 35.5 µM [inhibitor, partial curve]
COc1cc(CNCCN(C)C)ccc1OCc1c(F)cccc1Cl |  | inconclusive: 12.6 µM [inhibitor, partial curve]
Cc1ccc(OCc2cc(C(=O)NC3CCc4ccccc43)no2)cn1 (configuration not stated) |  | inconclusive: 28.2 µM [inhibitor, partial curve, poor fit]
Cc1ccccc1-c1nc(CS(=O)(=O)CC(=O)NC2CCCCC2C)c(C)o1 (configuration not stated) |  | inconclusive: 50.1 µM [inhibitor, single point]
Cc1c(O)c(O)cc2c1oc1c3ccccc3oc(=O)c21 |  | inconclusive: 56.2 µM [inhibitor, single point]
Cc1cccc(/C=N/N(CCO)C2=NS(=O)(=O)c3ccccc32)c1 |  | inconclusive: 35.5 µM [inhibitor, partial curve]
Cc1ccc(C(=O)N2CCCC(C(=O)c3cc(F)ccc3F)C2)s1 (configuration not stated) |  | inconclusive: 22.4 µM [inhibitor, partial curve]
Nc1ccccc1N=Cc1ccc(-c2cccc(Cl)c2)o1 | inactive: 96.1% | 
CCN(CC)S(=O)(=O)c1ccc2oc(C(=O)NCc3ccc(F)cc3)c(C)c2c1 |  | inconclusive: 4.47 µM [inhibitor, partial curve]
Cc1cc(OCCN2CCC(Cc3ccccc3)CC2)ccc1[N+](=O)[O-] |  | inconclusive: 31.6 µM [inhibitor, partial curve]
CCOC(CNC(=O)Cn1nc(Cc2ccncc2)c2ccccc2c1=O)OCC | inactive: -4.47% | 
C/C=C/Cn1c(SCc2ccccc2)nc2c1c(=O)[nH]c(=O)n2C |  | inconclusive: 35.5 µM [inhibitor, partial curve]
CC1CC(C)CN(S(=O)(=O)c2ccc(C(=O)N3CCN(c4ccccc4)CC3)cc2)C1 (configuration not stated) |  | inconclusive: 2 µM [inhibitor, full curve]
Cc1nc(-c2ccc(S(=O)(=O)Nc3ccc(Cl)c(C(F)(F)F)c3)cc2)co1 |  | inconclusive: 35.5 µM [inhibitor, partial curve]
COC(=O)C(C)Sc1snnc1-c1ccccc1 (configuration not stated) |  | inconclusive: 39.8 µM [inhibitor, partial curve]
COc1ccc(CC(=O)Nc2ccc(S(=O)(=O)Nc3nccs3)cc2)cc1 | inactive: 4.62% | 
Cc1ccc(-c2nc(CCNC(=O)C(=O)Nc3c(C)cccc3C)cs2)cc1 |  | inconclusive: 0.794 µM [inhibitor, full curve]
CC1CCCCN1S(=O)(=O)c1ccc(NC(=O)c2cccs2)cc1 (configuration not stated) |  | inconclusive: 28.2 µM [inhibitor, partial curve]
Cc1c(C(=O)NCCC2=CCCCC2)cccc1[N+](=O)[O-] |  | inconclusive: 20 µM [inhibitor, partial curve]
COc1ccc(C(=O)NCCCN2CCOCC2)cc1 | inactive: 0.855% | 
CN(C)CCNc1oc(COc2cccc(Cl)c2)nc1C#N |  | inconclusive: 56.2 µM [inhibitor, single point]
Cc1ccc(OCCCCN2CCc3ccccc3C2)cc1 |  | inconclusive: 31.6 µM [inhibitor, partial curve]

Structure (SMILES) | activity change, negative = displacement | Potency
O=C(CNC(=O)/C(=C\c1ccc(F)cc1)NC(=O)c1ccccc1)OCc1ccccc1 |  | inconclusive: 35.5 µM [inhibitor, single point]
COc1ccc(/C=N/OCC(=O)N2CC3(C)CC2CC(C)(C)C3)cc1 (configuration not stated) |  | inconclusive: 15.8 µM [inhibitor, partial curve]
COc1ccccc1CCC(=O)OCC(=O)NC1CCCCC1 |  | inconclusive: 25.1 µM [inhibitor, partial curve]
O=C(COc1ccccc1)Nc1ccc(S(=O)(=O)NCc2ccco2)cc1 |  | inconclusive: 25.1 µM [inhibitor, partial curve]
CSc1nc2ccccc2n1Cc1c(Cl)cccc1Cl | inactive: -13% | 
CC(C)Cc1nc(N2CCN(C(=O)c3ccco3)CC2)c(C#N)c2c1CCC2 | inactive: -19.8% | 
CCOC(=O)N/N=C(/C)c1ccc(N2C(=O)C3CCCCC3C2=O)cc1 (configuration not stated) |  | inconclusive: 28.2 µM [inhibitor, single point]
O=C(c1ccco1)N1C2C=CC(C2)C1(C(F)(F)F)C(F)(F)F (configuration not stated) |  | inconclusive: 12.6 µM [inhibitor, partial curve]
COc1ccc(CNC(=O)CCC(=O)n2ncc3cc(C)ccc32)cc1 |  | inconclusive: 17.8 µM [inhibitor, partial curve]
COc1ccc(OC)c(NC(=O)c2ccccc2N(Cc2ccccc2)S(C)(=O)=O)c1 |  | inconclusive: 3.55 µM [inhibitor, partial curve]
CC1(C)CC(CCC(=O)NC(=S)Nc2ccccc2Cl)C(=O)O1 (configuration not stated) |  | inconclusive: 39.8 µM [inhibitor, partial curve]
COc1cccc(/C=C/C(=O)Nc2ccc3nc(N4CCN(C)CC4)cc(C)c3c2)c1OC |  | inconclusive: 3.98 µM [inhibitor, full curve, poor fit]
O=C1CC(c2ccc(O)cc2)Oc2ccccc21 (configuration not stated) |  | inconclusive: 12.6 µM [inhibitor, partial curve]
O=S1(=O)CCOCCCN1Cc1ccccc1F |  | inconclusive: 14.1 µM [inhibitor, partial curve]
COc1cccc(C2C(C(=O)c3sc(C)nc3C)=C(O)C(=O)N2CCN2CCOCC2)c1OC (configuration not stated) | inactive: -14% | 
C#Cc1cccc(Nc2ncnc3cc(OC)c(OC)cc23)c1 | inactive: -9.98% | 
CN1CCN(C(=S)Nc2cc([N+](=O)[O-])ccc2Cl)CC1 |  | inconclusive: 44.7 µM [inhibitor, partial curve]
CCOC(=O)C(=CNc1ncccc1C)C(=O)OCC |  | inconclusive: 28.2 µM [inhibitor, partial curve]
CCN(CC)c1ccc(NC(=O)/C=C\c2ccccc2Cl)cc1 |  | inconclusive: 35.5 µM [inhibitor, partial curve]
CCC(C)(C(=O)NC1CCCCC1)N(C(=O)c1ccccn1)c1ccc(C)cc1 (configuration not stated) | inactive: -15.1% | 
COc1ccc(OCc2nnc(SCC(=O)c3ccccc3)o2)cc1 |  | inconclusive: 25.1 µM [inhibitor, partial curve]

Source: PubChem BioAssay AID485281 (National Center for Advancing Translational Sciences (NCATS), 2010)
